Results on 82 molecules are retold here after ChEMBL document CHEMBL1201862, “PubChem BioAssay data set” (2004).

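Cells were grown in 96-well plates and exposed to each compound for 48 hours at five concentrations; endpoints were interpolated linearly between bracketing concentrations, or set to the highest concentration if not reached. Here, GI50 denotes the concentration required for 50% inhibition of growth.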 Active and inactive are the calls of the source. No stated cut-off is given here; in the data, active = GI50 up to about 1.1 µM and inactive = higher.

This assay relates to NCI-H322M. In words: growth of human tumour cells (NCI), 48 h.
Take `CCOC(=O)NC(=O)c1cn(CCNCCO)c(=O)[nH]c1=O`: the GI50 is inactive: > 100 µM.
For `Cc1nc2nc3c(ncn3COCCO)c(O)n2c1C(c1ccccc1)(c1ccccc1)c1ccccc1`, the GI50 is inactive: 15.4 µM.
`CC(=O)OC(C)c1cc2c(s1)C(=O)c1c(C(C)OC(C)=O)csc1C2=O` (configuration not stated): the GI50 is inactive: 1.45 µM.
With `c1ccc([P+](CC[P+](c2ccccc2)(c2ccccc2)c2ccccc2)(c2ccccc2)c2ccccc2)cc1`, the GI50 is inactive: > 100 µM.
To `CCCCc1ccc(-n2sc3ncc(-c4ccccc4)cc3c2=O)cc1` belongs inactive: > 100 µM; to `CCCCCCCCCC[C@H](O)[C@H]1CC[C@H]([C@H]2CC[C@H]([C@H](O)CC[C@H](O)CCCCCCC[C@@H](O)CC3=C[C@H](C)OC3=O)O2)O1`, inactive: 91.4 µM.
As for `COC(=O)C1(N2CCOCC2)CCC([C@@H](c2ccccc2)C(C)[N+](=O)[O-])C1` (some centres not stated), the GI50 is inactive: > 100 µM.
Then `COc1ccc(OC)c2c3c([nH]c12)C(=O)Nc1nc(N)nc(N)c1C3`, with inactive: > 100 µM.
`COc1cccc(/C=C/C(=O)c2sc(C(N)=S)nc2C)c1O`: the GI50 is inactive: > 100 µM.
Regarding `COc1ccccc1N1C(=O)CC(=O)N(C(=O)CCCCCCCCC(=O)N2C(=O)CC(=O)N(c3ccccc3OC)C2=S)C1=S`, the GI50 is inactive: 71.3 µM.
As to `CCCCCCCCC1C(C)c2c([nH]c3ccccc23)C2C(=O)N(c3ccccc3)C(=O)C21` (configuration not stated), the GI50 is inactive: 17.4 µM.
Consider `CCOC(=O)C(=O)Nc1cc(Cl)c(Cl)cc1Cl`, for which the GI50 is inactive: > 100 µM.
`Nc1cc2c3c(cccc3c1)C(=O)N(c1ccc(OCCN3CCCCC3)cc1)C2=O`: the GI50 was inactive: 18.4 µM.
To `CC1(C)OCC(C(O)C2OC(C)(C)OC2/C=N\O)O1` (configuration not stated) belongs inactive: > 100 µM; to `CCCCCCCCCCCCOC(=S)NC`, inactive: 20.6 µM.
To `O=C1c2ccccc2C(=O)C1C(c1ccc([N+](=O)[O-])cc1)C1C(=O)c2ccccc2C1=O` belongs inactive: > 100 µM; to `COc1cc(C2C3=C(N=C4SC(C(C)=O)=C(C)N42)c2ccccc2CC3)cc(OC)c1OC` (configuration not stated), inactive: > 100 µM; to `COc1ccc(/C=C2\N=C(SC)N(CN3CCCCC3)C2=O)cc1`, inactive: > 100 µM.
For `Cc1ccccc1NC(=O)c1ccc([N+](=O)[O-])cc1`, the GI50 was inactive: > 100 µM.
Turning to `COc1ccc2c(c1O)-c1cc(O)cc3c1[C@@H](C2)N(C)CC3`, the GI50 is inactive: 57.1 µM.
With `CCCn1c(SC)nc(COC(=O)NC)c1COC(=O)NC`, the GI50 is inactive: > 100 µM.
To `Clc1ncc(Cl)c(Cl)n1` belongs inactive: 14.1 µM.
Consider `COc1cc(/C=c2\sc3n(c2=O)C(c2ccc(Cl)cc2)C2=C(CCCC2C)N=3)cc(OC)c1OC` (configuration not stated), for which the GI50 is inactive: > 100 µM.
`CC(=O)OC1CC2(c3ccccc3)C(=O)c3ccccc3N2O1` (configuration not stated): the GI50 is inactive: > 100 µM.
Regarding `CC(C)OC(=O)C1=C2c3ncccc3C(=O)N2[C@@H](Cl)[C@@H](Cl)[C@@H]1Cl`, the GI50 is inactive: > 100 µM.
Regarding `Cc1ccc(S(=O)(=O)N/N=C/C(C)C)cc1`, the GI50 was inactive: > 100 µM.
For the molecule `CCOC(=O)/C=C/[C@H](O[Si](CC)(CC)CC)C(C)(C)C`, the GI50 is inactive: > 100 µM.
Regarding `CO/N=C(\C)c1cccc(Nc2c3ccccc3nc3occc23)c1`, the GI50 is inactive: 25.4 µM.
As to `COC(=O)C12CCC(CC1=O)C2(C)C` (configuration not stated), the GI50 was inactive: > 100 µM.
For `CC1(C)OC2COC(c3n[nH]c4c(=O)[nH]c(=O)[nH]c34)C2O1` (configuration not stated), the GI50 is inactive: > 100 µM.
As for `COc1cc(OC)c(C#N)c(OC)c1C`, the GI50 is inactive: > 100 µM.
To `CC1=CC2C(C(C)C)CC1C1C(=O)OC(=O)C21` (configuration not stated) belongs inactive: > 100 µM; to `CC(=O)c1cccc(Nc2nc3ccccc3c3[nH]c4ccccc4c23)c1`, inactive: 4.79 µM; to `Nc1nc(Cl)c2ncn(Cc3cccc(CCl)c3)c2n1`, inactive: 11 µM.
Take `COc1ccc(-n2nnc3c(C#N)c(-c4ccccc4)c(C)n3c2=O)cc1`: the GI50 was inactive: 94.8 µM.
Regarding `CC[C@@]1(O)C(=O)OCc2c1cc1n(c2=O)Cc2c-1nc1ccc(N)cc1c2CC[Si](C)(C)C`, the GI50 is active: < 0.0107 µM.
For the molecule `CCCC(=O)Nc1cc(/C=C/C(=O)N2CC(CCl)c3c2cc([N+](=O)[O-])c2ccccc32)n(C)c1` (configuration not stated), the GI50 is inactive: > 100 µM.
Take `CCOC(=O)C(Cc1ccc(OC(=O)c2ccc(OC)cc2OC)cc1)NC(=O)C(F)(F)F` (configuration not stated): the GI50 is inactive: 18.9 µM.
As to `CC1=Nc2c(ccc3c2C(=O)c2ccccc2C3=O)NC(c2ccncc2)C1` (configuration not stated), the GI50 was inactive: 28.7 µM.
To `O=C(O)c1nc(-c2ccccc2)ncc1-c1nnnn1-c1ccccc1` belongs inactive: > 100 µM; to `CN(C)C1(N(C)C)Oc2c(c(=O)n(C)c(=O)n2C)C(c2ccccc2Br)C1(F)F` (configuration not stated), inactive: > 100 µM.
Consider `Cc1ccc(OCC2OC(n3cnc4nc(Nc5ccc(Cl)c(Cl)c5)nc(Cl)c43)CC2Oc2ccc(C)cc2)cc1` (configuration not stated), for which the GI50 is inactive: > 100 µM.
In the case of `CCOC(=O)c1c(N2CCCC2)ncn(Cc2ccccc2)c1=S`, the GI50 is inactive: > 100 µM.
Then `CCOC(=O)C(=[N+]=[N-])C(=O)CN1C(=O)c2ccccc2C1=O`, with inactive: > 100 µM; and `COc1ccc2nc3n(c2c1)C(c1c(F)cccc1F)SC3` (configuration not stated), with inactive: 57.1 µM.
Take `COc1ccc(/C=c2/s/c(=C(\C#N)c3nc4ccccc4[nH]3)n(-c3ccccc3)c2=O)cc1`: the GI50 is inactive: > 63.7 µM.
In the case of `CSc1ccc(-c2cc(-c3nc4ccccc4[nH]3)nc3[nH]c(-c4nc5ccccc5[nH]4)cc(=O)c23)cc1`, the GI50 is inactive: > 100 µM.
Then `O=C1C/C(=C\c2ccccc2)C(=O)c2ccccc2N1`, with inactive: 15.7 µM.
Turning to `CC(=O)n1[nH]c(=O)n(-c2ccc(Cl)cc2)c1=O`, the GI50 was inactive: > 100 µM.
Consider `C=C(C(=O)O)[C@@H]1C[C@@H](OC(C)=O)[C@]2(C)CC/C=C(\C)CCC[C@H](C)[C@H](O)[C@@H]1O2`, for which the GI50 is inactive: > 100 µM.
On to `CC(=O)N(CN1C(=O)CCC1C(=O)O)c1cccc(O)c1` (configuration not stated), for which the GI50 is inactive: > 100 µM.
For the molecule `C[C@@H]1OC2(O)[C@H]3CCCN3S(=O)(=O)CCN2C1=O` (some centres not stated), the GI50 was inactive: > 100 µM.
To `O=c1oc2c(ccc3ccccc32)cc1C1=CSC2=NCCN12` belongs inactive: 48.9 µM; to `Cc1ccc(N2C(=O)N(c3ccc(C)cc3)C3(SC=NN3C)C2=O)cc1` (configuration not stated), inactive: > 100 µM; to `C=C(N=[N+]=[N-])c1cn(C2CC(O)C(CO)O2)c(=O)[nH]c1=O` (configuration not stated), inactive: > 100 µM.
In the case of `Cc1ccc(NC(=O)CCc2cc(C(C)(C)C)nc(S)n2)cc1C`, the GI50 is inactive: > 100 µM.
Then `CCOC(=O)/C(=C\c1ccnc2ccccc12)P(=O)(OCC)OCC`, with inactive: 3.29 µM; and `Cc1cc2c(c(/C=N/c3ccc([N+](=O)[O-])cc3)c1)OC1(C=C2)Oc2ccccc2C(=O)N1C` (configuration not stated), with inactive: 17.7 µM; and `Cc1ccc(S(=O)(=O)NC(=O)Nc2ccc(C(=O)O)c(O)c2)cc1`, with inactive: > 100 µM.
Regarding `c1ccc(C2CC(N3CCOCC3)=Nc3ccccc3N2)cc1` (configuration not stated), the GI50 is inactive: > 100 µM.
On to `CCC1(CC)C(=O)NN(C(=O)c2ccc(Cl)cc2)C1=O`, for which the GI50 is inactive: > 100 µM.
Take `CC(NC(=O)C(N)Cc1ccc(O)cn1)C(=O)O` (configuration not stated): the GI50 was inactive: > 100 µM.
To `CC(=O)c1c(CO[N+](=O)[O-])[n+]([O-])c2ccccc2[n+]1[O-]` belongs inactive: 47.2 µM; to `Cc1ccc2c(c1)C(=O)C(Cc1ccccc1C(=O)O)C2` (configuration not stated), inactive: > 100 µM; to `CC(C)=C[C@@H]1C[C@H](C)[C@H]2CC[C@H](C)[C@H]3C(=O)C(O)=C(C)C(=O)[C@]123`, inactive: > 100 µM.
To `C/C(=N\NC(=S)NC(C)(C)C)c1ccccn1` belongs active: < 0.0156 µM; to `N#Cc1nc(-c2cccc(-c3nc(C#N)c(N)o3)n2)oc1N`, inactive: > 100 µM; to `O=C1[C@@H]2Cc3c([nH]c4ccccc34)C(C3CCCCC3)N2C(=O)[C@@H]2CCCN12` (some centres not stated), inactive: 58.9 µM.
Turning to `Cc1ccc(CC(Cc2ccccc2C)C(=O)O)c(C(=O)O)c1` (configuration not stated), the GI50 was inactive: > 100 µM.
Regarding `O=C(O)COc1cc(-c2ccccc2)nc2ccc(F)cc12`, the GI50 was inactive: > 100 µM.
For the molecule `O=C1[C@H]2ON(c3ccccc3)C(c3ccccc3F)[C@H]2C(=O)N1c1ccc(Cc2ccc(N3C(=O)[C@@H]4ON(c5ccccc5)C(c5ccccc5F)[C@@H]4C3=O)cc2)cc1` (some centres not stated), the GI50 is inactive: > 100 µM.
On to `COc1ccc(-c2cc3[nH]nc(N)c3c(=O)o2)cc1`, for which the GI50 was inactive: > 100 µM.
For `O=C(OC1CCC2OOC1O2)c1ccc([N+](=O)[O-])cc1` (configuration not stated), the GI50 is inactive: > 100 µM.
As to `COC(=O)c1cccc(C(=O)OC)c1`, the GI50 was inactive: > 100 µM.
Consider `COc1ccc2cc1Oc1ccc(cc1)CC1c3cc(c(OC)cc3CCN1C)Oc1c3c(cc4c1C(C2)N(C)CC4)OCO3` (configuration not stated), for which the GI50 was inactive: 14.1 µM.
Consider `Cc1ccc(/N=N/c2c(O)ccc3cc(S(=O)(=O)O)ccc23)c(C)c1`, for which the GI50 was inactive: > 100 µM.
In the case of `CC(C)CC(NC(O)[BH2-][N+](C)(C)C)C(=O)NC(Cc1ccccc1)C(=O)N[C@H]1c2ccsc2/C(=N/O)[C@H]1O` (some centres not stated), the GI50 is inactive: > 100 µM.
For the molecule `Cn1cnc([N+](=O)[O-])c1Sc1nc(N)nc2c1ncn2C1OC(CO)C(O)C1O` (configuration not stated), the GI50 is inactive: 12.6 µM.
Take `COC1(c2ccc(Cl)cc2)SC=C(C)n2c1noc2=O` (configuration not stated): the GI50 was inactive: > 100 µM.
Take `CN1CCc2c([nH]c3ccccc23)C1`: the GI50 was inactive: > 100 µM.
To `Cc1c(O)c(=O)ccn1CCO` belongs inactive: > 100 µM; to `CCC(C)[C@H]1C(=O)N=C(N)N1C(=O)OCc1ccccc1` (some centres not stated), inactive: > 100 µM.
